Measured values from patent EP4755449A2.

What was measured:
Assay in all cases: SPR 25C
[1] = target: human Fc gamma RIIIaV extracellular domain, His-tagged (human) (UniProt P08637)
[2] = target: human Fc gamma RIIaH extracellular domain, His-tagged (human) (UniProt P12318)
[3] = target: human Fc gamma RIIaR extracellular domain, His-tagged (human) (UniProt P12318)
[4] = target: human Fc gamma RIIb extracellular domain, His-tagged (human) (UniProt P31994)
UniProt P31994, sequence (P31994 43-217): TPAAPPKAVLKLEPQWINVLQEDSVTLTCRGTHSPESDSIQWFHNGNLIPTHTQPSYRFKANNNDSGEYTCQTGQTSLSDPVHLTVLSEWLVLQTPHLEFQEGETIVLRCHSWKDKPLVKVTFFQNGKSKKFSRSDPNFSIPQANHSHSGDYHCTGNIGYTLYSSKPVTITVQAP

UniProt P08637, sequence (P08637 17-208 F176V): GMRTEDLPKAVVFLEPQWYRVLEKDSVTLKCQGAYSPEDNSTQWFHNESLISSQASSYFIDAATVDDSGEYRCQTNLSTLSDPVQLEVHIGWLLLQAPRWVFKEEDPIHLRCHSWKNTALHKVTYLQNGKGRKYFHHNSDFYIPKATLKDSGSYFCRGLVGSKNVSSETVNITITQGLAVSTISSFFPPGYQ

| Binder | relative binding (parent B3=100) [1] | relative binding (parent B3=100) [2] | relative binding (parent B3=100) [3] | relative binding (parent B3=100) [4] |
| --- | --- | --- | --- | --- |
| GpH7-B3 K334M/GpL16-k0 (antibody, human IgG1, kappa) heavy: QVQLVQSGAEVKKPGASVTVSCKASGYTFTDYEMHWIRQPPGEGLEWIGAIDPKTGDTAYSESFQDRVTLTADKSTSTAYMELSSLTSEDTAVYYCTRFYSYTYWGQGTLVTVSS[letters of human IgG1 constant region with K334M K439E (EU numbers) not shown] light: DIVMTQSPLSLPVTPGEPASISCQASESLVHSNRNTYLHWYLQKPGQSPQLLIYKVSNRFSGVPDRFSGSGSGTDFTLKISRVEAEDVGVYYCSQNTHVPPTFGQGTKVEIERTVAAPSVFIFPPSDEQLKSGTASVVCLLNNFYPREAKVQWKVDNALQSGNSQESVTEQDSKDSTYSLSSTLTLSKADYEKHKVYACEVTHQGLSSPVTKSFNRGEC | 183 | 151 | 127 | 148 |
| GpH7-B3 H268E/GpL16-k0 (antibody, human IgG1, kappa) heavy: QVQLVQSGAEVKKPGASVTVSCKASGYTFTDYEMHWIRQPPGEGLEWIGAIDPKTGDTAYSESFQDRVTLTADKSTSTAYMELSSLTSEDTAVYYCTRFYSYTYWGQGTLVTVSS[letters of human IgG1 constant region with H268E K439E (EU numbers) not shown] light: DIVMTQSPLSLPVTPGEPASISCQASESLVHSNRNTYLHWYLQKPGQSPQLLIYKVSNRFSGVPDRFSGSGSGTDFTLKISRVEAEDVGVYYCSQNTHVPPTFGQGTKVEIERTVAAPSVFIFPPSDEQLKSGTASVVCLLNNFYPREAKVQWKVDNALQSGNSQESVTEQDSKDSTYSLSSTLTLSKADYEKHKVYACEVTHQGLSSPVTKSFNRGEC | 205 | 169 | 132 | 283 |
| GpH7-B3 K334I/GpL16-k0 (antibody, human IgG1, kappa) heavy: QVQLVQSGAEVKKPGASVTVSCKASGYTFTDYEMHWIRQPPGEGLEWIGAIDPKTGDTAYSESFQDRVTLTADKSTSTAYMELSSLTSEDTAVYYCTRFYSYTYWGQGTLVTVSS[letters of human IgG1 constant region with K334I K439E (EU numbers) not shown] light: DIVMTQSPLSLPVTPGEPASISCQASESLVHSNRNTYLHWYLQKPGQSPQLLIYKVSNRFSGVPDRFSGSGSGTDFTLKISRVEAEDVGVYYCSQNTHVPPTFGQGTKVEIERTVAAPSVFIFPPSDEQLKSGTASVVCLLNNFYPREAKVQWKVDNALQSGNSQESVTEQDSKDSTYSLSSTLTLSKADYEKHKVYACEVTHQGLSSPVTKSFNRGEC | 187 | 169 | 137 | 174 |
| GpH7-B3 K326T/GpL16-k0 (antibody, human IgG1, kappa) heavy: QVQLVQSGAEVKKPGASVTVSCKASGYTFTDYEMHWIRQPPGEGLEWIGAIDPKTGDTAYSESFQDRVTLTADKSTSTAYMELSSLTSEDTAVYYCTRFYSYTYWGQGTLVTVSS[letters of human IgG1 constant region with K326T K439E (EU numbers) not shown] light: DIVMTQSPLSLPVTPGEPASISCQASESLVHSNRNTYLHWYLQKPGQSPQLLIYKVSNRFSGVPDRFSGSGSGTDFTLKISRVEAEDVGVYYCSQNTHVPPTFGQGTKVEIERTVAAPSVFIFPPSDEQLKSGTASVVCLLNNFYPREAKVQWKVDNALQSGNSQESVTEQDSKDSTYSLSSTLTLSKADYEKHKVYACEVTHQGLSSPVTKSFNRGEC | 164 | 138 | 127 | 195 |
| GpH7-B3 I332D/GpL16-k0 (antibody, human IgG1, kappa) heavy: QVQLVQSGAEVKKPGASVTVSCKASGYTFTDYEMHWIRQPPGEGLEWIGAIDPKTGDTAYSESFQDRVTLTADKSTSTAYMELSSLTSEDTAVYYCTRFYSYTYWGQGTLVTVSS[letters of human IgG1 constant region with I332D K439E (EU numbers) not shown] light: DIVMTQSPLSLPVTPGEPASISCQASESLVHSNRNTYLHWYLQKPGQSPQLLIYKVSNRFSGVPDRFSGSGSGTDFTLKISRVEAEDVGVYYCSQNTHVPPTFGQGTKVEIERTVAAPSVFIFPPSDEQLKSGTASVVCLLNNFYPREAKVQWKVDNALQSGNSQESVTEQDSKDSTYSLSSTLTLSKADYEKHKVYACEVTHQGLSSPVTKSFNRGEC | 235 | 129 | 139 | 198 |

Second part, the binder after the results:

| relative binding (parent B3=100) [1] | relative binding (parent B3=100) [2] | relative binding (parent B3=100) [3] | relative binding (parent B3=100) [4] | Binder |
| --- | --- | --- | --- | --- |
| 145 | 176 | 125 | 283 | GpH7-B3 S267A/GpL16-k0 (antibody, human IgG1, kappa) heavy: QVQLVQSGAEVKKPGASVTVSCKASGYTFTDYEMHWIRQPPGEGLEWIGAIDPKTGDTAYSESFQDRVTLTADKSTSTAYMELSSLTSEDTAVYYCTRFYSYTYWGQGTLVTVSS[letters of human IgG1 constant region with S267A K439E (EU numbers) not shown] light: DIVMTQSPLSLPVTPGEPASISCQASESLVHSNRNTYLHWYLQKPGQSPQLLIYKVSNRFSGVPDRFSGSGSGTDFTLKISRVEAEDVGVYYCSQNTHVPPTFGQGTKVEIERTVAAPSVFIFPPSDEQLKSGTASVVCLLNNFYPREAKVQWKVDNALQSGNSQESVTEQDSKDSTYSLSSTLTLSKADYEKHKVYACEVTHQGLSSPVTKSFNRGEC |
| 53 | 156 | 135 | 179 | GpH7-B3 L328T/GpL16-k0 (antibody, human IgG1, kappa) heavy: QVQLVQSGAEVKKPGASVTVSCKASGYTFTDYEMHWIRQPPGEGLEWIGAIDPKTGDTAYSESFQDRVTLTADKSTSTAYMELSSLTSEDTAVYYCTRFYSYTYWGQGTLVTVSS[letters of human IgG1 constant region with L328T K439E (EU numbers) not shown] light: DIVMTQSPLSLPVTPGEPASISCQASESLVHSNRNTYLHWYLQKPGQSPQLLIYKVSNRFSGVPDRFSGSGSGTDFTLKISRVEAEDVGVYYCSQNTHVPPTFGQGTKVEIERTVAAPSVFIFPPSDEQLKSGTASVVCLLNNFYPREAKVQWKVDNALQSGNSQESVTEQDSKDSTYSLSSTLTLSKADYEKHKVYACEVTHQGLSSPVTKSFNRGEC |
| 176 | 172 | 132 | 184 | GpH7-B3 K334V/GpL16-k0 (antibody, human IgG1, kappa) heavy: QVQLVQSGAEVKKPGASVTVSCKASGYTFTDYEMHWIRQPPGEGLEWIGAIDPKTGDTAYSESFQDRVTLTADKSTSTAYMELSSLTSEDTAVYYCTRFYSYTYWGQGTLVTVSS[letters of human IgG1 constant region with K334V K439E (EU numbers) not shown] light: DIVMTQSPLSLPVTPGEPASISCQASESLVHSNRNTYLHWYLQKPGQSPQLLIYKVSNRFSGVPDRFSGSGSGTDFTLKISRVEAEDVGVYYCSQNTHVPPTFGQGTKVEIERTVAAPSVFIFPPSDEQLKSGTASVVCLLNNFYPREAKVQWKVDNALQSGNSQESVTEQDSKDSTYSLSSTLTLSKADYEKHKVYACEVTHQGLSSPVTKSFNRGEC |
| 93 | 152 | 130 | 252 | GpH7-B3 P271G/GpL16-k0 (antibody, human IgG1, kappa) heavy: QVQLVQSGAEVKKPGASVTVSCKASGYTFTDYEMHWIRQPPGEGLEWIGAIDPKTGDTAYSESFQDRVTLTADKSTSTAYMELSSLTSEDTAVYYCTRFYSYTYWGQGTLVTVSS[letters of human IgG1 constant region with P271G K439E (EU numbers) not shown] light: DIVMTQSPLSLPVTPGEPASISCQASESLVHSNRNTYLHWYLQKPGQSPQLLIYKVSNRFSGVPDRFSGSGSGTDFTLKISRVEAEDVGVYYCSQNTHVPPTFGQGTKVEIERTVAAPSVFIFPPSDEQLKSGTASVVCLLNNFYPREAKVQWKVDNALQSGNSQESVTEQDSKDSTYSLSSTLTLSKADYEKHKVYACEVTHQGLSSPVTKSFNRGEC |
| 46 | 96 | 67 | 100 | GpH7-B3 P331E/GpL16-k0 (antibody, human IgG1, kappa) heavy: QVQLVQSGAEVKKPGASVTVSCKASGYTFTDYEMHWIRQPPGEGLEWIGAIDPKTGDTAYSESFQDRVTLTADKSTSTAYMELSSLTSEDTAVYYCTRFYSYTYWGQGTLVTVSS[letters of human IgG1 constant region with P331E K439E (EU numbers) not shown] light: DIVMTQSPLSLPVTPGEPASISCQASESLVHSNRNTYLHWYLQKPGQSPQLLIYKVSNRFSGVPDRFSGSGSGTDFTLKISRVEAEDVGVYYCSQNTHVPPTFGQGTKVEIERTVAAPSVFIFPPSDEQLKSGTASVVCLLNNFYPREAKVQWKVDNALQSGNSQESVTEQDSKDSTYSLSSTLTLSKADYEKHKVYACEVTHQGLSSPVTKSFNRGEC |
| 135 | 128 | 148 | 156 | GpH7-B3 Q295L/GpL16-k0 (antibody, human IgG1, kappa) heavy: QVQLVQSGAEVKKPGASVTVSCKASGYTFTDYEMHWIRQPPGEGLEWIGAIDPKTGDTAYSESFQDRVTLTADKSTSTAYMELSSLTSEDTAVYYCTRFYSYTYWGQGTLVTVSS[letters of human IgG1 constant region with Q295L K439E (EU numbers) not shown] light: DIVMTQSPLSLPVTPGEPASISCQASESLVHSNRNTYLHWYLQKPGQSPQLLIYKVSNRFSGVPDRFSGSGSGTDFTLKISRVEAEDVGVYYCSQNTHVPPTFGQGTKVEIERTVAAPSVFIFPPSDEQLKSGTASVVCLLNNFYPREAKVQWKVDNALQSGNSQESVTEQDSKDSTYSLSSTLTLSKADYEKHKVYACEVTHQGLSSPVTKSFNRGEC |
